From PMC4336329 (PLoS ONE, 2015)
Out of some 310,000 compounds screened, about 2,200 (0.71%) showed an effect of 50% or more. The effect is printed as a negative number. The list shows a part of the results.

biological target: human ether-à-go-go-related gene (hERG) potassium channel (human, UniProt Q12809); test: primary screen, population patch clamp on CHO cells stably expressing hERG
Sequence (Q12809 whole entry, looked up): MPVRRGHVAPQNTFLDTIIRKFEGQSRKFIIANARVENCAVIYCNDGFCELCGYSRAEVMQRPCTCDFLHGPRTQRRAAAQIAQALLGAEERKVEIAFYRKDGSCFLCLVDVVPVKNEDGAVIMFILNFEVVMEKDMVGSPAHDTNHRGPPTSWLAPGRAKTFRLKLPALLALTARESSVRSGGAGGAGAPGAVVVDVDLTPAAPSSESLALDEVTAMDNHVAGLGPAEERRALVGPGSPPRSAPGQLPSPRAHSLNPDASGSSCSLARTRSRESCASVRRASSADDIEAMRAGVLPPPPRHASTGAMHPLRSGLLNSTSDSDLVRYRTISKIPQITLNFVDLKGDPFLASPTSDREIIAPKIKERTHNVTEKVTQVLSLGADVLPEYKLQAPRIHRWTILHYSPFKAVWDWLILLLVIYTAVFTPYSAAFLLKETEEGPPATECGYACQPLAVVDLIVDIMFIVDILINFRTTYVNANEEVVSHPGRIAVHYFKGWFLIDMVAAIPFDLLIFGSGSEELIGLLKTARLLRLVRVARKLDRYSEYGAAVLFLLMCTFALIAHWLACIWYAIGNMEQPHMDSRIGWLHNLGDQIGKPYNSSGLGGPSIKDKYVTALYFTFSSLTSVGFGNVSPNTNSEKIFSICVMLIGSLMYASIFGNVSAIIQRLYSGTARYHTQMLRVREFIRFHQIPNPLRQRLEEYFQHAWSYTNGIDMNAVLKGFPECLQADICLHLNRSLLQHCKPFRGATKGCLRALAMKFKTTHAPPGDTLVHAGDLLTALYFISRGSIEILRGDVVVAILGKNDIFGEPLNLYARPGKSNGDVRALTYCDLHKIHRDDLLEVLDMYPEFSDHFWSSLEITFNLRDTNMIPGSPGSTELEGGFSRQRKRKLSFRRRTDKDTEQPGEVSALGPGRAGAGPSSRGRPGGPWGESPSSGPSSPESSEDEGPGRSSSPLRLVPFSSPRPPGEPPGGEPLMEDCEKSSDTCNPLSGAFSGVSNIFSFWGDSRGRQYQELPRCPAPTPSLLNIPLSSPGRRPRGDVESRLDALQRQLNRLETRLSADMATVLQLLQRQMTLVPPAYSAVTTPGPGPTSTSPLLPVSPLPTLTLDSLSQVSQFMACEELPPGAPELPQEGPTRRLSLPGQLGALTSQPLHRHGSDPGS

SMILES	hERG current change (%, negative = inhibition) at 1uM [%]
Cc1ccc(S(=O)(=O)Nc2ccccc2C(=O)N2CCOCC2)cc1	8.26
CC(c1ccccc1)n1c(-c2cccs2)nc2c(c(=O)c3ccccc3n2C)c1=O (stereo not shown)	11
COc1ccc(NC(=O)CN(Cc2ccccc2)S(C)(=O)=O)c(OC)c1	1.66
O=C(N/N=C/c1ccc([N+](=O)[O-])s1)c1cccc(Br)c1	8.42
Cc1nn(-c2ccccc2)c(Cl)c1/C=N/O	4.67
COc1cc(CNn2c(C)n[nH]c2=S)cc(Cl)c1OCC(=O)NC(C)(C)C	14.3
COc1cccc(Nc2nc(N)c([N+](=O)[O-])c(N3CCOCC3)n2)c1	5.99
CCOc1ccc(CNC(=S)NCc2ccc(OCC)cc2)cc1	17.2
Clc1ccc(-c2csc(-c3ccno3)n2)cc1	15.2
CCN(CC(=O)Nc1c(F)cccc1F)C(=O)c1ccc(S(=O)(=O)N2CCC(C)CC2)cc1	-0.968
Cc1ccccc1NC(=S)NC(NC(=O)CF)C(Cl)(Cl)Cl (stereo not shown)	1.04
O=C(CN1C(=O)C2CCCCC2C1=O)OCC(=O)c1ccc(Cl)s1 (stereo not shown)	5.71
Cc1sc(NC(=O)c2ccccc2)c(C(c2ccccn2)N2CCN(CCO)CC2)c1C (stereo not shown)	5.39
CCOC(=O)C(=O)NNc1ccccc1OC	15.9
O=C(CN1CCC2(CC1)OCCO2)c1ccc2cc[nH]c2c1	-8.03
O=C(O)C[C@H]1c2cc(F)ccc2S(=O)(=O)N1C1CCCC1	19.7
COc1ccc(C(=O)NNC(=O)C(=O)Nc2ccc(C)cc2)cc1	3.44
CC1(C)CC(OC(=O)c2ccco2)CC(C)(C)N1O.Cl	5.4
O=C(/C=C/c1ccc(S(=O)(=O)N2CCOCC2)cc1)N(CCO)Cc1ccccc1	9.69
Cc1ccnc(NC(=O)c2cnc(Cl)c(Cl)c2)c1	11.2
COc1ccc(CNC(=O)Cn2nc(Cc3cccnc3)c3ccccc3c2=O)cc1	-7.98
O=C(C1CCCN(S(=O)(=O)c2ccccc2)C1)N1CCN(c2ccccc2)CC1 (stereo not shown)	-12.7

SMILES	hERG current change (%, negative = inhibition) at 1uM [%]
COc1cccc(-c2nn3c(-c4cccc(C)c4)nnc3s2)c1	14.4
Cn1cnnc1SCC(=O)NC1CCCN(Cc2ccccc2F)C1 (stereo not shown)	12.3
Cc1cc(NS(=O)(=O)c2ccc(NC(=O)CSc3nc4ncccc4[nH]3)cc2)nc(C)n1	11.9
Cc1c(Nc2cc(N3CCOCC3)c3nonc3c2[N+](=O)[O-])c(=O)n(-c2ccccc2)n1C	23.4
Cc1ccc(CNC(=O)C(OC(=O)c2ccco2)C(C)C)cc1 (stereo not shown)	10.6
CC(=O)N1CCc2cc(S(=O)(=O)CCC(=O)NCCc3ccc(C)cc3)ccc21	15.4
O=C(N/N=C1\CC2CC=CC12)c1ccc(COc2ccccc2)cc1 (stereo not shown)	8.26
Cc1ccc(N)cc1-n1c(C)ccc1C	8.1
CC(=O)N1CCc2c(sc(NC(=O)CS(=O)(=O)c3ccc(F)cc3)c2C(N)=O)C1	20.3
O=C(/C=C/c1ccccc1)OCCCCN=C1NS(=O)(=O)c2ccccc21	10.1
CN(C)Cc1c(C(=O)N/N=C/C=C/c2ccccc2)nnn1-c1nonc1N	2.15
Cc1ccc(C)c(N2C(=O)C3C4C=CC(CC4)C3C2=O)c1 (stereo not shown)	13.9
COc1ccc(CNc2nc(C)cc(C)c2C#N)cc1	14.8
O=C(COc1ccccc1)NCC(=O)N/N=C/c1ccc(O)cc1O	-0.632
c1cncc(-c2nc(-c3cccs3)cs2)c1	11.7
O=C(c1ccco1)N1CCCSC1=Nc1ccccc1	18.4
COc1ccc(NC(=O)CSCc2cc(=O)n3cc(C)sc3n2)cc1	14.1
CCN(CC)CCn1c(SCC(=O)Nc2cccc(OC)c2)nc2c(sc3ccccc32)c1=O	-33.1
C=CCn1c(C)cc(C(=O)Cn2nc(C(=O)O)c3ccccc3c2=O)c1C	5.09
Cn1c(SCc2cccc([N+](=O)[O-])c2)nc2ccccc2c1=O	9.43
CC(C)N(C(=O)COC(=O)[C@H](C)NC(N)=O)c1ccccc1	15.4
CC(C)c1cc(NCCCN2CCOCC2)n2c(nc3ccccc32)c1C#N	-55.7

SMILES	hERG current change (%, negative = inhibition) at 1uM [%]
O=C(CCCOc1ccc(Cl)cc1Cl)Nc1ccc(O)cc1C(=O)O	23.1
CCN(CC)C(=O)CSc1nc2c(sc(=S)n2-c2ccccc2OC)c(=O)n1-c1ccccc1	16.1
CCNC(=O)COc1ccc(OCc2ccccc2)cc1	4.71
COc1ccccc1NC(=O)CCSc1nnc(-c2ccc(O)cc2)o1	10.4
O=C(Nc1ccccc1N1CCOCC1)C1CCN(S(=O)(=O)c2ccc(F)cc2)CC1	5.77
N=c1c(S(=O)(=O)c2ccc(Cl)cc2)cc2c(=O)n3ccccc3nc2n1CCN1CCOCC1	-13.1
Cc1ccccc1NC(=O)c1cc(S(=O)(=O)N2CCOCC2)cs1	8.1
COc1ccc(S(=O)(=O)N2CCOCC2)cc1NC(=O)COc1ncnc2ccccc12	12.4
O=C(Nc1cccnc1Cl)c1cc(-c2cccc(O)c2)on1	4.37
COC(=O)C1CCN(C(=O)c2cc(OC)c(OC)c(OC)c2)CC1	17.5
O=C(O)c1occc1CSc1ccccc1	20.3
O=C(Cc1ncc(C(F)(F)F)cc1Cl)N1CCN(c2cccc(Cl)c2)CC1	-7.4
Cc1cc(/C=C2\C(=N)N3N=CSC3=NC2=O)c(C)n1Cc1ccccc1	1.22
O=C(c1cc(-c2ccc(O)cc2)on1)N1CCCCCC1	8.87
O=C(Nc1cccc(C(F)(F)F)c1)c1cc[n+]([O-])cc1	15.9
COCCCn1nnnc1SCC(=O)Nc1nc2ccccc2s1	11.6
CCOC(=O)c1c(NC(=O)CN2C(=O)NC3(CCCCCC3)C2=O)sc(C)c1-c1ccc(C)cc1	7.74
CC1CCN(C(=O)COC(=O)/C=C/c2ccc(Br)o2)CC1	10.5
COc1cc(CN2CCCCCC2)cc(Br)c1O	16.3
Cc1ccc(N2CCN(S(=O)(=O)c3nnc(NC(=O)c4ccccc4)s3)CC2)cc1	17.1
O=C1c2cc(S(=O)(=O)NCCO)ccc2-c2ccc(S(=O)(=O)NCCO)cc21	6.34
CC1CC(N(C(=O)c2ccco2)c2ccccc2)c2ccccc2N1C(=O)c1ccco1 (stereo not shown)	17.3

SMILES	hERG current change (%, negative = inhibition) at 1uM [%]
O=C1OCC(c2ccccc2)=C1c1ccc(S(=O)(=O)N2CCOCC2)s1	3.09
CCOC(=O)c1c(-c2ccccc2)oc2ccc(OCC(=O)O)cc12	6.24
O=C(COc1ccc(Br)cc1)NCCNC(=O)c1cccnc1	5.89
CSc1ccccc1C(=O)Nc1c(C)cccc1C	10.9
Cc1cc(C)cc(NC(=O)COC(=O)CCc2ccc(S(=O)(=O)N3CCOCC3)cc2)c1	5.96
CCCOc1ccc(C2/C(=C(\O)c3c(C)[nH]c(C(=O)OC)c3C)C(=O)C(=O)N2CCN(C)C)cc1 (stereo not shown)	10.9
COc1ccc(-n2nc3c(c2NC(=O)Cc2cccc(C)c2)CS(=O)C3)cc1 (stereo not shown)	3.52
Nc1cccc(C(=O)Nc2ccc3nc(-c4cccnc4)[nH]c3c2)c1	6.12
O=C(O)c1cccc(NC(=O)C2CC(=O)N(Cc3ccccc3)C2)c1 (stereo not shown)	11.4
Cc1cccc(NC(=O)CCCN2C(=S)NC(C)(C)CC2C)c1C (stereo not shown)	1.93
Cn1c(SC2=CS(=O)(=O)c3ccccc32)nc2ccccc21	8.64
Cc1cccc(NC(=O)C2Cc3ccccc3O/C2=N\O)c1 (stereo not shown)	11.7
Cc1ccc(C2(c3noc(CN(C)Cc4ccccn4)n3)CCCC2)cc1	8.03
O=C(CSc1nnnn1C1CCCCC1)Nc1cccc(NC(=O)c2ccco2)c1	7.65
CC1C(=O)N2CCCc3cc(NC(=O)C(=O)NCc4ccccn4)cc1c32 (stereo not shown)	8.33
COc1ccccc1C(=O)NCc1ccc2c(c1)OCO2	4.62
CN(C(=O)COc1ccc(C(C)(C)C)cc1)C1CCS(=O)(=O)C1 (stereo not shown)	-10.4
O=C(NCc1ccco1)C(Cc1ccccc1)N1C(=O)c2ccccc2C1=O (stereo not shown)	5.71
COC(=O)C1=C(C)NC(=O)/C1=C\c1cc(C)n(-c2ccc(F)cc2)c1C	7.49
CC(O)(CS(=O)(=O)Cc1ccccc1)C(=O)Nc1cccc(C(F)(F)F)c1 (stereo not shown)	0.555
Cc1cc(C(=O)NCC(C)C)c2ccccc2n1	15.1
O=C(c1ccc([N+](=O)[O-])cc1)N1CCN(C2=NS(=O)(=O)c3ccccc32)CC1	-12.2
